# The list shows a part of the results. Many values rest on one well or one pass, so single values are uncertain.
# Test system: MEL-HO
# Experiment: cell count relative to DMSO control; melanoma cells; higher = more viable cells
# Details: library dose: standard library concentration; 72 h
# 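Note: cells treated in 1,536-well plates, then fixed and DAPI-stained, with nuclei counted from automated high-throughput microscope images.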
row,Structure (SMILES),cell count
1,"CS(=O)(=O)c1ccc(C(=O)Nc2ccc(Cl)c(-c3ccccn3)c2)c(Cl)c1 [vismodegib] + Oc1cc(-c2nc(-c3ccccc3)[nH]c2-c2ccncc2)ccc1Cl [L779450] (first compound 5 µM, partner dose 1 µM)",77.1%
2,"CN(c1ncccc1CNc1nc(Nc2ccc3c(c2)CC(=O)N3)ncc1C(F)(F)F)S(C)(=O)=O + C=C(c1ccc(C(=O)O)cc1)c1cc2c(cc1C)C(C)(C)CCC2(C)C [Bexarotene] (first compound 0.4 µM, partner dose 10 µM)",77.9%
3,"CS(=O)(=O)c1ccc(C(=O)Nc2ccc(Cl)c(-c3ccccn3)c2)c(Cl)c1 [vismodegib] + O=C1NC(=O)/C(=C/c2ccc(-c3ccc(F)cc3O)o2)S1 [AS252424] (first compound 5 µM, partner dose 5 µM)",78.1%
4,"NC1(c2ccc(-c3nc4ccn5c(=O)[nH]nc5c4cc3-c3ccccc3)cc2)CCC1 + CN(NC(=O)CC(=O)NN(C)C(=S)c1ccccc1)C(=S)c1ccccc1 [STA4783] (first compound 2 µM, partner dose 0.03 µM)",66.5%
5,"CS(=O)(=O)c1ccc(C(=O)Nc2ccc(Cl)c(-c3ccccn3)c2)c(Cl)c1 [vismodegib] + NC1(c2ccc(-c3nc4ccn5c(=O)[nH]nc5c4cc3-c3ccccc3)cc2)CCC1 [MK2206] (first compound 5 µM, partner dose 2 µM)",75.3%
6,"CN(c1ncccc1CNc1nc(Nc2ccc3c(c2)CC(=O)N3)ncc1C(F)(F)F)S(C)(=O)=O + O=C(CCCCCCC(=O)Nc1ccccc1)NO [vorinostat] (first compound 0.4 µM, partner dose 0.4 µM)",83%
7,"CS(=O)(=O)c1ccc(C(=O)Nc2ccc(Cl)c(-c3ccccn3)c2)c(Cl)c1 [vismodegib] + Nc1ncn([C@H]2C[C@H](O)[C@@H](CO)O2)c(=O)n1 [decitabine] (first compound 5 µM, partner dose 0.5 µM)",98.2%
8,"CN(c1ncccc1CNc1nc(Nc2ccc3c(c2)CC(=O)N3)ncc1C(F)(F)F)S(C)(=O)=O + O=C(Nc1cccc(Cl)c1)Nc1ncc(CCNc2ncnc3ccsc23)s1 [SNS314] (first compound 0.4 µM, partner dose 0.004 µM)",71.7%
9,"C=C(c1ccc(C(=O)O)cc1)c1cc2c(cc1C)C(C)(C)CCC2(C)C [Bexarotene] + COc1ccc(-c2ccc3c(N4CCOCC4)nc(N4C[C@@H](C)O[C@@H](C)C4)nc3n2)cc1CO [KU0063794] (first compound 10 µM, partner dose 0.1 µM)",82.7%
10,"C=C(c1ccc(C(=O)O)cc1)c1cc2c(cc1C)C(C)(C)CCC2(C)C [Bexarotene] + Cn1cncc1[C@@](N)(c1ccc(Cl)cc1)c1ccc2c(c1)c(-c1cccc(Cl)c1)cc(=O)n2C [tipifarnib] (first compound 10 µM, partner dose 0.05 µM)",100%
11,"CCCS(=O)(=O)Nc1ccc(F)c(C(=O)c2c[nH]c3ncc(Cl)cc23)c1F + CCN(CC)CCCCNc1ncc2cc(-c3cc(OC)cc(OC)c3)c(NC(=O)NC(C)(C)C)nc2n1 [PD173074] (first compound 0.4 µM, partner dose 0.5 µM)",109%
12,"CN(c1ncccc1CNc1nc(Nc2ccc3c(c2)CC(=O)N3)ncc1C(F)(F)F)S(C)(=O)=O + Cn1c(Nc2ccc(C(F)(F)F)cc2)nc2cc(Oc3ccnc(-c4ncc(C(F)(F)F)[nH]4)c3)ccc21 [CHIR265] (first compound 0.4 µM, partner dose 0.4 µM)",60.1%
13,"C=C(c1ccc(C(=O)O)cc1)c1cc2c(cc1C)C(C)(C)CCC2(C)C [Bexarotene] + CC(=O)c1c(C)c2cnc(Nc3ccc(N4CCNCC4)cn3)nc2n(C2CCCC2)c1=O [palbociclib] (first compound 10 µM, partner dose 0.2 µM)",70.6%
14,"C=C(c1ccc(C(=O)O)cc1)c1cc2c(cc1C)C(C)(C)CCC2(C)C [Bexarotene] + Cc1nc(Nc2ncc(C(=O)Nc3c(C)cccc3Cl)s2)cc(N2CCN(CCO)CC2)n1 [dasatanib] (first compound 10 µM, partner dose 0.02 µM)",62.9%
15,"CCCS(=O)(=O)Nc1ccc(F)c(C(=O)c2c[nH]c3ncc(Cl)cc23)c1F + NCC(=O)Nc1ccc(-n2nc(C(F)(F)F)cc2-c2ccc3c(ccc4ccccc43)c2)cc1 [OSU03012] (first compound 0.4 µM, partner dose 5 µM)",67.9%
16,"NC1(c2ccc(-c3nc4ccn5c(=O)[nH]nc5c4cc3-c3ccccc3)cc2)CCC1 + OCCn1cc(-c2cnc3nnn(Cc4ccc5ncccc5c4)c3n2)cn1 [PF04217903] (first compound 2 µM, partner dose 5 µM)",83.2%
17,"C=C(c1ccc(C(=O)O)cc1)c1cc2c(cc1C)C(C)(C)CCC2(C)C [Bexarotene] + C#Cc1cccc(Nc2ncnc3cc(OCCOC)c(OCCOC)cc23)c1 [erlotinib] (first compound 10 µM, partner dose 4 µM)",92.6%

row,Structure (SMILES),cell count
1,"CS(=O)(=O)c1ccc(C(=O)Nc2ccc(Cl)c(-c3ccccn3)c2)c(Cl)c1 [vismodegib] + CC(C)CCN1c2nc(Nc3cc(F)c(O)c(F)c3)ncc2N(C)C(=O)C1C [BID1870] (first compound 5 µM, partner dose 1 µM)",72.3%
2,"NC1(c2ccc(-c3nc4ccn5c(=O)[nH]nc5c4cc3-c3ccccc3)cc2)CCC1 + COc1cc2c(Oc3ccc4[nH]c(C)cc4c3F)ncnc2cc1OCCCN1CCCC1 [cediranib] (first compound 2 µM, partner dose 2 µM)",77.5%
3,"C=C(c1ccc(C(=O)O)cc1)c1cc2c(cc1C)C(C)(C)CCC2(C)C [Bexarotene] + COc1ccc2c(c1)CCC1C2CCC2(C)C(NCCCCCCN3C(=O)C=CC3=O)CCC12 [U73122] (first compound 10 µM, partner dose 2 µM)",82.6%
4,"NC1(c2ccc(-c3nc4ccn5c(=O)[nH]nc5c4cc3-c3ccccc3)cc2)CCC1 + CS(=O)(=O)CCNCc1ccc(-c2ccc3ncnc(Nc4ccc(OCc5cccc(F)c5)c(Cl)c4)c3c2)o1 [lapatinib] (first compound 2 µM, partner dose 4 µM)",61%
5,"CS(=O)(=O)c1ccc(C(=O)Nc2ccc(Cl)c(-c3ccccn3)c2)c(Cl)c1 [vismodegib] + COCC[n+]1c2c(n(Cc3cnccn3)c1C)C(=O)c1ccccc1C2=O [YM155] (first compound 5 µM, partner dose 0.002 µM)",103%
6,"CCCS(=O)(=O)Nc1ccc(F)c(C(=O)c2c[nH]c3ncc(Cl)cc23)c1F + CC(=O)c1c(C)c2cnc(Nc3ccc(N4CCNCC4)cn3)nc2n(C2CCCC2)c1=O [palbociclib] (first compound 0.4 µM, partner dose 0.2 µM)",69.7%
7,"C=C(c1ccc(C(=O)O)cc1)c1cc2c(cc1C)C(C)(C)CCC2(C)C [Bexarotene] + O=C(O)C(=O)Nc1sc2c(c1C(=O)O)CCNC2 [TCS401] (first compound 10 µM, partner dose 8.33333 µM)",83.5%
8,"CCCS(=O)(=O)Nc1ccc(F)c(C(=O)c2c[nH]c3ncc(Cl)cc23)c1F + Nc1nc(F)nc2c1ncn2[C@@H]1O[C@H](CO)[C@@H](O)[C@@H]1O [fludarabine] (first compound 0.4 µM, partner dose 1 µM)",79.7%
9,"NC1(c2ccc(-c3nc4ccn5c(=O)[nH]nc5c4cc3-c3ccccc3)cc2)CCC1 + COc1ccc2c(c1)CCC1C2CCC2(C)C(NCCCCCCN3C(=O)C=CC3=O)CCC12 [U73122] (first compound 2 µM, partner dose 2 µM)",67.8%
10,"CS(=O)(=O)c1ccc(C(=O)Nc2ccc(Cl)c(-c3ccccn3)c2)c(Cl)c1 [vismodegib] + COc1cc(N2CCC(N3CCN(C)CC3)CC2)ccc1Nc1ncc(Cl)c(Nc2ccccc2S(=O)(=O)C(C)C)n1 [NVP-TAE684] (first compound 5 µM, partner dose 0.4 µM)",93.1%
11,"C=C(c1ccc(C(=O)O)cc1)c1cc2c(cc1C)C(C)(C)CCC2(C)C [Bexarotene] + O=c1cc(-c2cccc3c2Sc2ccccc2S3)oc(N2CCOCC2)c1 [KU55933] (first compound 10 µM, partner dose 5 µM)",89.5%
12,"CS(=O)(=O)c1ccc(C(=O)Nc2ccc(Cl)c(-c3ccccn3)c2)c(Cl)c1 [vismodegib] + OCc1c[nH]c2ccccc12 [Indole-3-carbinol] (first compound 5 µM, partner dose 4 µM)",111%
13,"CN(c1ncccc1CNc1nc(Nc2ccc3c(c2)CC(=O)N3)ncc1C(F)(F)F)S(C)(=O)=O + CC1(C)NC(=O)N(c2ccc([N+](=O)[O-])c(C(F)(F)F)c2)C1=O [nilutamide] (first compound 0.4 µM, partner dose 5 µM)",89.2%
14,"CS(=O)(=O)c1ccc(C(=O)Nc2ccc(Cl)c(-c3ccccn3)c2)c(Cl)c1 [vismodegib] + NCC(=O)Nc1ccc(-n2nc(C(F)(F)F)cc2-c2ccc3c(ccc4ccccc43)c2)cc1 [OSU03012] (first compound 5 µM, partner dose 5 µM)",76.5%
15,"CS(=O)(=O)c1ccc(C(=O)Nc2ccc(Cl)c(-c3ccccn3)c2)c(Cl)c1 [vismodegib] + C[C@]1(c2nc3c(C(N)=O)cccc3[nH]2)CCCN1 [Veliparib] (first compound 5 µM, partner dose 7 µM)",112%
16,"NC1(c2ccc(-c3nc4ccn5c(=O)[nH]nc5c4cc3-c3ccccc3)cc2)CCC1 + C=CCn1c(=O)c2cnc(Nc3ccc(N4CCN(C)CC4)cc3)nc2n1-c1cccc(C(C)(C)O)n1 [MK1775] (first compound 2 µM, partner dose 0.1 µM)",63.3%

# — the supplement of paper PMC4604168 (melanoma cell lines)
